# Experimental data reported in PubChem BioAssay AID463173 (ICCB-Longwood Screening Facility, Harvard Medical School, 2010).
# Among all 52,000 compounds or so, about 4,300 (8.3%) were called active. Rule as the data show it: active = survival mostly below about 52% (no sharp cut-off); inactive = mostly above about 56%. The list shows a part of the results.
# Test system: DeltatarO mutant
# Assay: growth inhibition of S. aureus wild type versus tarO mutant, primary screen, teichoic acid synthesis inhibitors, RN4220, OD600 (AID 463173)
# Conditions: OD600, 18 h, hits give low values, screened at 18.75 µg/mL (by protocol)
row,SMILES,survival
1,COc1ccc(NC(=O)CSc2ccc3nc(-c4ccccc4)cn3n2)cc1OC,inactive: 113%
2,CC(C)NC(=O)c1nn(-c2ccccc2F)nc1CO,inactive: 98%
3,O=C(CSc1nnc(-c2ccc(S(=O)(=O)N3CCCC3)cc2)n1CC1CCCO1)NC1CC1 (centres undefined),inactive: 99%
4,Cc1ccc(CNC(=O)CN2C(=O)COc3ccc(S(=O)(=O)Nc4ccccc4)cc32)cc1,active: -4%
5,CC(C)(C)OC(=O)N1CCC(c2nnc(SCc3cccc(Cl)c3)o2)CC1,active: 1%
6,Cc1ccc2nc3sc(C(=O)NCCCN(C)c4ccccc4)cc3cc2c1,inactive: 115%
7,COc1ccccc1CNC(=O)CCC1N=C2c3ccccc3N=C(SCc3ccc(C)cc3C)N2C1=O (centres undefined),inactive: 63%
8,COC(CNS(=O)(=O)c1ccc(S(=O)(=O)NC2CC2)cc1)OC,inactive: 74%
9,Fc1cccc(-n2ncc3c2ncn2nc(Cc4ccccc4)nc32)c1,inactive: 76%
10,CC(=O)c1ccc(NC(=O)c2cc3sccc3n2Cc2ccc(F)cc2)cc1,inactive: 76%
11,CCn1c(SCCC#N)nnc1-c1ccncc1,inactive: 98%
12,Cc1cc(C)cc(NC(=O)c2cc(CN3CCCC3)on2)c1,inactive: 88%
13,CCCCCOC(=O)CSc1ncnc2sc3c(c12)CCC(C)C3 (centres undefined),active: -4%
14,CCc1ccc(NC(=O)CC2C(=O)N(c3cccc(OC)c3)C(=O)N2C2CCCC2)cc1 (centres undefined),inactive: 108%
15,Cc1ccc(C)c(NC(=S)N2CCC(c3nc4ccccc4o3)CC2)c1,inactive: 98%
16,Cc1ccc2c(c1)-c1ncc(C(=O)c3ccccc3O)cc1CO2,active: 3%
17,Cc1ccc(C(=O)NC2=NC(c3ccc(C)cc3)CC(=O)N2)cc1 (centres undefined),inactive: 120%
18,COc1ccc(-n2ncc3c(NC4CCCC4)ncnc32)cc1,inactive: 131%
19,COc1ccc(S(=O)(=O)Nc2ccc(-c3cn4c(C)csc4n3)cc2)cc1,inactive: 94%
20,COc1cc(C2C(C(=O)c3ccco3)=C(O)C(=O)N2CCc2ccccc2)ccc1O (centres undefined),inactive: 86%
21,Cc1ccc(N2CCN(S(=O)(=O)c3cccc4ccccc34)CC2)cc1Cl,inactive: 120%
22,COc1ccccc1S(=O)(=O)Cc1ccc(C(=O)NCc2ccc(Cl)cc2)o1,inactive: 73%
23,COc1ccc(-c2csc(N)n2)cc1C,inactive: 97%

row,SMILES,survival
1,O=C(Nc1cccc(C(F)(F)F)c1)c1cc(CN2CCOCC2)on1,inactive: 120%
2,COc1cccc(CNC(=O)COc2cc(=O)n(C)c3ccccc23)c1,inactive: 72%
3,Cc1ccc(-n2nnnc2CNC(=O)c2cc(C(F)(F)F)cc(C(F)(F)F)c2)cc1C,active: 0%
4,CCN(CC)C(=O)c1cc2sccc2n1Cc1ccc(F)cc1,inactive: 100%
5,CCc1cccc(NC(=O)CCNS(=O)(=O)c2cccc3nonc23)c1,inactive: 97%
6,COC(=O)c1ccc(NC(=O)c2nc(-c3ccc(Cl)cc3)n3c2CCCCC3)cc1,inactive: 78%
7,CCOc1ccc2nc(SCC(=O)O)c(C)cc2c1,inactive: 78%
8,CCCCNC(=O)c1ccc2c(c1)ncn2-c1cc(OC)ccc1OC,inactive: 112%
9,Cc1c(Cl)cccc1-n1ncc(C(=O)Nc2ccc(Br)cc2F)c1C1CCNCC1,inactive: 87%
10,CCCn1c(SCC(=O)N(C2CCCCC2)C2CCCCC2)nc2c1c(=O)n(C)c(=O)n2C,inactive: 90%
11,O=C(Nc1ccccc1F)c1ccc2c(Cl)c3c(nc2c1)CCC3,active: 21%
12,CCOc1ccccc1CNCc1cccn1-c1nnc(N2CCN(c3ccccc3)CC2)s1,active: 47%
13,CCN(CCCNC(=O)c1nn(-c2ccc(OC)cc2)c(=O)c2c1c1ccccc1n2C)c1ccccc1,inactive: 75%
14,O=C(CC(c1ccccc1)c1ccccc1)N1CCN(Cc2ccc3c(c2)OCO3)CC1,inactive: 67%
15,COc1ccccc1C(=O)NCC(c1cccnc1)N1CCc2ccccc2C1 (centres undefined),inactive: 68%
16,CCCOC(=O)c1c(NC(=O)C(C)Sc2nc(-c3ccccc3)cc(C(F)(F)F)n2)sc(C(=O)N(C)C)c1C (centres undefined),inactive: 132%
17,Cc1cccc(N2CCN(C(=O)CN3C(=O)CSc4c3c(C)nn4-c3ccccc3)CC2)c1C,inactive: 83%
18,CC(C)(C)CC(=O)NCC(c1ccc2c(c1)OCO2)N1CCN(c2ccccc2)CC1 (centres undefined),inactive: 77%
19,O=C1C(c2ccc(F)cc2)N(CCc2ccc(Cl)cc2)C(=O)CN1C1CCCCCC1 (centres undefined),inactive: 67%
20,CCC(C)NC(=O)Cn1c(=O)n(CCCCCC(=O)NCc2ccccc2Cl)c(=O)c2sccc21 (centres undefined),inactive: 127%
21,CC(=O)c1ccc(NC(=O)c2cc(-c3ccc(C)s3)nc3ccccc23)cc1,inactive: 65%
22,O=C(NCc1cccc(Br)c1)c1cnn(-c2ccc(F)cc2)c1-n1cccc1,inactive: 89%
23,CCOC(=O)Cn1cnc2sc(C(=O)OCC)c(C)c2c1=O,inactive: 95%

row,SMILES,survival
1,COc1cc(NC(=O)N2c3ccccc3Sc3ccccc32)cc(OC)c1,inactive: 62%
2,O=C(CSc1nccn1-c1ccc(Cl)cc1)Nc1ccc(Cl)c(Cl)c1,inactive: 90%
3,CCOC(=O)N1CCc2c(sc3c2c(=O)n(CCc2ccccc2)c(=O)n3CC(=O)Nc2ccc(C)cc2)C1,inactive: 74%
4,Cc1ccc(S(=O)(=O)n2nc(-c3ccccc3)nc2NCc2ccc(Cl)cc2)cc1,inactive: 83%
5,COc1ccc(C2C(=O)N(C3CCCCCC3)CC(=O)N2Cc2ccc(C)cc2)cc1 (centres undefined),inactive: 60%
6,O=C(CSc1nc2c([nH]c3ccccc32)c(=O)n1-c1ccccc1)N1CCc2ccccc21,inactive: 101%
7,S=c1[nH]nc(CCCOc2ccc(Cl)cc2Cl)o1,inactive: 54%
8,CN(C)CCNC(=O)C1CCN(Cc2cc3ccccc3n2Cc2ccccc2)CC1,inactive: 93%
9,CCOc1ccc(S(=O)(=O)c2c(C(=O)c3ccc(CC)cc3)cnc3ccc(C)cc23)cc1,inactive: 74%
10,COc1cc(NC(=O)CCc2c(C)nn(-c3ccc4nnc(C)n4n3)c2C)cc(OC)c1OC,inactive: 80%
11,CCOc1ccc(N2CC(NC(=O)c3cccs3)CC2=O)cc1 (centres undefined),inactive: 76%
12,CCCN(CCC)CCCNC(=O)c1cc2c(-c3ccc(OC)c(OC)c3)nn(C)c2s1,inactive: 160%
13,O=C1S/C(=C\c2ccccc2)C(=O)N1CN1CCOCC1,inactive: 89%
14,Cc1ccc(NC(=O)CN2CCN(S(=O)(=O)c3ccc(C(C)C)cc3)CC2)cc1F,inactive: 54%
15,OC1(c2cccc(C(F)(F)F)c2)CCN(c2ccc(-c3ccccc3)nn2)CC1,inactive: 82%
16,COc1ccc(Nc2nc(N)nc(N)c2S(=O)(=O)c2ccccc2)cc1,inactive: 78%
17,Cc1cn(C)c(CC(=O)N2CCN(c3cccc(Cl)c3)CC2)c1C(=O)O,inactive: 88%
18,Cc1ccc(-n2nc(CO)c(C(=O)NC(C)CCCc3ccccc3)n2)cc1 (centres undefined),inactive: 86%
19,CCc1nn2c(=O)cc(COC(=O)CNC(=O)COc3ccc(C)cc3)nc2s1,inactive: 116%
20,COc1ccc(NC(=O)c2c(NCc3sccc3C)sc3c2CCCC3)c(OC)c1,inactive: 75%
21,CCC(=O)N1CCc2cc(S(=O)(=O)CCC(=O)N3CCN(c4ccc(Cl)cc4)CC3)ccc21,inactive: 55%
22,CC(C)CC(NS(=O)(=O)c1ccc2c(c1)oc(=O)n2C)C(=O)NCc1ccccc1Cl (centres undefined),inactive: 84%
23,CCCn1c(=O)sc2cc(NC(=O)c3ccc(OC)c(Br)c3)ccc21,inactive: 70%

row,SMILES,survival
1,CCCOc1ccc(CN(C(=O)Cc2coc3ccc(CC)cc23)C2CCS(=O)(=O)C2)cc1 (centres undefined),inactive: 71%
2,COc1cc(Cl)c(NC(=O)CCS(=O)(=O)c2ccc3c(c2)NC(=O)CO3)c(OC)c1,inactive: 90%
3,CC(C)(C)OC(=O)N1CCC(c2c(C(=O)NC3CCN(Cc4ccccc4)CC3)cnn2-c2ccc(F)cc2F)CC1,active: -2%
4,COc1ccc(CCNC(=O)c2ccc3c(c2)CCN3S(=O)(=O)c2ccc(C)cc2)cc1,active: 43%
5,COc1ccc(-c2cc(C(=O)NCCc3ccccc3)c3c(-c4ccccc4)[nH]nc3n2)cc1OC,inactive: 167%
6,Cc1cc(C)nc(NNC(=O)c2ccccc2)n1,inactive: 107%
7,Cc1ccc(NC(=O)C2CCCN(S(=O)(=O)c3ccc4c(c3)oc(=O)n4C)C2)cc1Cl (centres undefined),inactive: 76%
8,O=C1CC(C(=O)Nc2ccccc2)C2(CCCC2)O1 (centres undefined),inactive: 72%
9,CCOc1ccc(NC(=O)C(=O)c2cc(C)n(-c3cc(C)cc(C)c3)c2C)cc1,inactive: 114%
10,Cc1cccc(NC(=O)c2ccc3nc(C(C)C)oc3c2)c1C,inactive: 94%
11,COc1cccc(NC(=O)CSC2=Nc3ccccc3C3=NC(CCC(=O)NCCc4ccccc4)C(=O)N23)c1 (centres undefined),inactive: 58%
12,Cc1ccc(-n2cc(C(=O)Oc3cccc(C)c3)c3ccccc3c2=O)cc1,inactive: 69%
13,CCCN(CCC)C(=O)Cn1c(=O)n(-c2ccc(CC)cc2)c(=O)c2ccc(C(=O)NCCc3ccccc3)cc21,inactive: 90%
14,CCOC(=O)c1ccc(Nc2nc3ccc(C(=O)c4ccccc4)cc3n3c(C)nnc23)cc1,inactive: 109%
15,O=C(Nc1ccc(F)cc1C(F)(F)F)C1CCN(c2ncccn2)CC1,inactive: 76%
16,COc1ccc(S(=O)(=O)c2cn(C)c3ccc(C)cc3c2=O)cc1,inactive: 90%
17,Cc1cccc(NC(=O)c2c(C)cc(C)nc2SCC(=O)c2ccccc2)c1,active: 40%
18,Cc1cc(C)c2oc(C(=O)Nc3ccc(S(=O)(=O)N4CCCCCC4)cc3)cc(=O)c2c1,inactive: 62%
19,Cc1cccc(NC(=O)COC(=O)CCCC2=NS(=O)(=O)c3ccccc3N2)c1,active: -2%
20,CCOc1ccc(S(=O)(=O)Nc2cccc(-c3ccc(OCC)nn3)c2)cc1,inactive: 99%
